Among all 46,000 compounds or so, about 60 (0.1%) were called active. Roughly 3% stayed inconclusive and do not appear here. Calls follow the shape of the dose curve; as a rule, active = well fitted inhibition curve with a large enough effect; inconclusive = small, poorly fitted or top-dose-only effect; inactive = no such curve, though single readings can be large or run the other way. The list shows a part of the results.
assay: Primary qHTS assay for Inhibitors of ovarian cancer metastasis using an organotypic tumor microenvironment (TME) model.; also: nearly all actives have a fitted effect of over 65% in size;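 as to activity change, negative = inhibition: plate controls were DMSO wells for no effect and tomatine positive control wells for full effect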; settings: SKOV3ip1-GFP adhesion/invasion on 3D omental model, fluorescence; series mostly up to 45.8 µM; activity change, negative = inhibition: at the top concentration
Summary of the method: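 A 3D layer of primary human omental fibroblasts, mesothelial cells, fibronectin and collagen I, grown 48 hr, received SKOV3ip1-GFP cells in serum-free medium plus compounds at 0.36-46 umol/L. After 2 hr RT and 16 hr 37 C, fixed adherent GFP cells were counted; normalized to DMSO and tomatine.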

Activity change, negative = inhibition, inactive:
COC(=O)c1cccc(Nc2c(-c3ccc(OC)cc3)nc3nc[nH]n23)c1 -8.18%
CC(=O)ON=C1C(c2c(O)[nH]c3cc(Br)ccc23)=Nc2ccccc21 -20.1%
CCC1=Nc2cc(C(=O)NCc3ccccc3Cl)ccc2Sc2ccc(C)cc21 5.48%
Cc1cccc(NC(=O)CSc2nc(=O)n(Cc3ccco3)c3c2CCC3)c1C 4.14%
CCOc1ccc(NC(=O)[C@H]2O[C@@H]3OC(C)(C)O[C@@H]3[C@H]3OC(C)(C)O[C@H]32)cc1 2.86%
COc1cccc(CNC(=O)CSc2n[nH]c(-c3ccccc3Cl)n2)c1OC -5.9%
CCc1ccc(Oc2c(C(F)(F)F)oc3c(CN4CCN(CC)CC4)c(O)ccc3c2=O)cc1 -9.85%
O=C(Nc1nc2ccc(S(=O)(=O)N3CCCC3)cc2s1)c1ccc(F)cc1 -12%
CCOc1ccc(CN(C(=O)c2nc(SC)ncc2Cl)C2CCS(=O)(=O)C2)cc1 (stereo not given) -7.63%
CCc1nn(CC(=O)NCc2ccccc2Cl)c(=O)c2cc3ccccc3n12 4.21%
O=c1c(N2CCN(c3cccc(Cl)c3)CC2)csc2ccccc12 3.02%
Cc1ccc2cc3cc(C(=O)N4CCN(c5ccccc5)CC4)oc3nc2c1 -3.31%
Cc1cc(C)cc(NC(=O)C(=O)NCCCN2CCOCC2)c1 -15.1%
CCOC(=O)N1CCc2c(sc3c2c(=O)n(-c2ccc(Cl)cc2)c(=O)n3Cc2cccc(OC)c2)C1 -3.62%
CCN(Cc1ccccc1)C(=O)c1cc2c(=O)oc3ccc(C)cc3c2s1 -0.132%
Cc1ccc(-c2nc(S(=O)(=O)c3ccc(C)cc3)c(SCC(=O)Nc3ccc(F)cc3)o2)cc1 -8.5%
CCc1ccc(S(=O)(=O)c2nnn3c2nc(Nc2cc(OC)cc(OC)c2)c2cc(Cl)ccc23)cc1 1.11%
Cc1cccc(N2CC(c3nc4ccccc4n3CCC3CCCCC3)CC2=O)c1 (stereo not given) 4.74%
Cc1cccc2c1-c1sc(C(=O)NCc3ccc(Cl)cc3)cc1CO2 -31.4%
CCOc1ccc(C(=O)Nc2ccccc2C(=O)OCc2cc(=O)n3nc(C4CC4)sc3n2)cc1 2.22%
COc1ccc(CCNC(=O)c2cc3c(s2)-c2c(C)cccc2OC3)c(OC)c1 5.61%
CCCCCSc1nnc2c(n1)OC(CC)Nc1ccc(Br)cc1-2 (stereo not given) -3.47%
COCCn1c(C)cc(O)c(C(c2ccc(Cl)cc2)N2CCN(c3ccccc3)CC2)c1=O (stereo not given) 2.18%
COc1ccc(NC(=O)Nc2cccc(OCc3cc(=O)n4cccc(C)c4n3)c2)c(OC)c1 3.56%
CN1C(C(=O)c2ccccc2)=C(NC(=O)c2ccccc2Br)c2ccccc2S1(=O)=O 2.92%
COc1ccc(-c2cc(C(C)=O)c(C)n2CCC(=O)Nc2ccc(C)cc2Cl)cc1 -11.5%
Cc1cc(C)cc(Nc2nc3ccccc3n3cnnc23)c1 5.28%
O=S(=O)(c1ccc2[nH]c3c(c2c1)CCCC3)N1CCN(c2cccc(C(F)(F)F)c2)CC1 2.91%
CCn1c(=O)cc(SCC(=O)NCCc2cccc(C)c2)c2ccccc21 -0.627%
O=c1n(Cc2ccc(Cl)cc2)c2ccccc2c2nc(-c3ccccc3)nn12 -18.2%
CCc1ccc(NC(=O)Cc2csc(COc3cccc(C)c3)n2)cc1 6.82%
Cc1nc2ccc(S(=O)(=O)NC(C(=O)N3CCN(c4ccc(Cl)cc4)CC3)C(C)C)cc2s1 (stereo not given) -2.77%
CCOc1ccc2oc(=O)cc(CN3CCN(Cc4ccc(F)cc4)CC3)c2c1 -5.61%
O=C(CCCn1c(=O)c2ccccc2n(CC(=O)Nc2cccc(Cl)c2)c1=O)NCc1ccc2c(c1)OCO2 -15.5%
CCC(=O)N1CCc2cc(Br)cc(S(=O)(=O)CCC(=O)N3CCN(c4ccc(OC)cc4)CC3)c21 -15%
CC(=O)c1ccc(N2CCN(c3nc4c(S(=O)(=O)c5ccc(C)c(C)c5)nnn4c4ccc(Cl)cc34)CC2)cc1 3.63%
Cc1cc(C)cc(-n2ccnc2SCC(=O)Nc2ccc(C)cc2C)c1 -10.4%
COc1ccc(C(=O)NCC(c2ccc(N(C)C)cc2)N2CCCC2)cc1 (stereo not given) -1.77%
COc1ccc(-c2cc(C(=O)NCc3ccc(F)cc3)no2)cc1 -17.7%
COc1cc(NC(=O)CNC(=O)Cn2ccc3ccccc3c2=O)cc(OC)c1OC -7.08%
CC(C)c1ccc(Nc2ncnc3c2nc2n3CCCC2)cc1 -5.72%
CCC(=O)Nc1ccccc1-c1nc2ccccc2n(C(C)C(=O)Nc2cccc(Cl)c2C)c1=O (stereo not given) 12.8%
COc1ccc(CCNc2nc(-c3ccc(F)cc3)cc(C(F)(F)F)n2)cc1OC -3.83%
CCc1ccc(NC(=O)CN2CCSc3ccc(S(=O)(=O)N4CCCC4)cc32)cc1 6.26%
COC(=O)c1cnn(-c2ccc(C(=O)Nc3ccc(OC(F)(F)F)cc3)cc2)c1N 10.4%
CCOc1ccc(S(=O)(=O)c2cn(C)c3ccccc3c2=O)cc1 -2.18%
CC(NC(=O)c1c2c(nc3ccccc13)C(=O)N(C1CCCCC1)C2)c1ccccc1 (stereo not given) 5.14%
Cc1ccc(NC(=O)CN2C(=O)CCn3nc(-c4cccn4C)cc32)c(Cl)c1 1.21%
CCOC(=O)C1CCN(C(=O)Cn2ncc3c4ccccc4n(Cc4ccccc4F)c3c2=O)CC1 -7.92%
CN(C)c1ccc(NC(=O)CN2C(=O)c3ccccc3Sc3ccc(C(=O)N4CCCC4)cc32)cc1 -2.54%

outcome, inactive:
Cc1cc(C)c(NC(=O)Cn2c(=O)n(Cc3ccc4c(c3)OCO4)c(=O)c3ccccc32)c(C)c1
CCOc1ccccc1CNC(=O)c1cn(-c2ccc(OC)cc2)c(=O)c2ccccc12
COCCCNC(=O)c1ccc(Cn2c(=O)c3ccccc3n(CC(=O)Nc3ccc(C)cc3C)c2=O)cc1
COc1ccc(-c2nc3nc(C)cc(N4CCN(c5cccc(C(F)(F)F)c5)CC4)n3n2)cc1
CCOC(=O)c1noc2ncnc(N3CCN(c4cccc(Cl)c4)CC3)c12
CC(C)c1cc(C(=O)NC(C)c2ccccc2)no1 (stereo not given)
COc1cc(C2N=C(N)Nc3nc4ccccc4n32)ccc1OCC(=O)O (stereo not given)
COc1ccc(C(CNC(=O)c2cccc([N+](=O)[O-])c2)N2CCOCC2)cc1 (stereo not given)
Cc1ccc(Cc2cnc(NC(=O)C3Cc4ccc(C)cc4C(=O)O3)s2)cc1 (stereo not given)
Cc1ccc(CNC(=O)Cn2c(=O)ccc3cc(S(=O)(=O)N4CCCC4)ccc32)cc1

From PubChem BioAssay AID1963576 (National Center for Advancing Translational Sciences (NCATS), 2024)
